Laboratory results as given in the supplement of paper PMC12217912.
This is one part of the list. The full chains were built here from the parent and the listed change. Inactive controls read about 0.05.

B1: TEV protease; numbered along this chain (parent)
chain: MGESLFKGPRDYNPISSSICHLTNESDGHTTSLYGIGFGPFIITNKHLFRRNNGTLVVQSLHGVFKVKDTTTLQQHLVDGRDMIIIRMPKDFPPFPQKLKFREPQREERICLVTTNFQTKSMSSMVSDTSCTFPSGDGIFWKHWIQTKDGQCGSPLVSTRDGFIVGIHSASNFTNTNNYFTSVPKNFMELLTNQEAQQWVSGWRLNADSVLWGGHKVFMVKPEEPFQPVKEATQL

Variants of: B1
Test: raw area under fraction-flipped curve 0-4 h after induction (AUC4h, not background-subtracted), DNA-recorder readout of cleavage of the substrate (dimensionless); higher = more cleavage of the substrate by the protease variant
Settings: temperature: 34 °C; time window: 0-4 h after rhamnose induction
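Note: Bxb1 expression induced with 0.2% (w/v) L-rhamnose at OD600 near 0.5, cultures sampled hourly, flipped fraction per protease–substrate barcode pair counted by paired-end Illumina sequencing.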

Variant | area with substrate ENLYFQC | area with substrate ENLYFQE | area with substrate ENLYFQF | area with substrate ENLYFQM | area with substrate ENLYFQS | area with substrate ENLYFQT | area with substrate ENLYFQR | area with substrate ENLYFQW | area with substrate ENLYFQD | area with substrate ENLYFQG
MGESLFKGPRDYNPISSSICHLTNESDGHTTSLYGIGFGPFIITNKHLFRRNNGTLVVQSLHGVFKVKDTTTLQQHLVDGRDMIIIRMPKDFPPFPQKLKFREPQREERICLVTTNFQTKSMSSMVSDTSCTFPSGDGIFWKHWIQTKDGQCGSPLVSTRDGFIVGIHSASNFTNTNNYFTSVPKNFMELLTNQTAQQWVSGWRLNADSVLWGGHKVFMVKPEEPFQPVKEATQL [E195T] | 0.119 | 0.0713 | 0.0578 | 0.0664 | 0.0962 | 0.0558 |  |  |  | 
MGESLFKGPRDYNPISSSICHLTNESDGHTTSLYGIGFGPFIITNKHLFRRNNGTLVVQSLHGVFKVKDTTTLQQHLVDGRDMIIIRMPKDFPPFPQKLKFREPQREERICLVTTNFQTKSMSSMVSDTSCTFPSGDGIFWKHWIQTKDGQCGSPLVSTRDGFIVGIHSASNFTNTNNYFTSVPKNFMELLTNQEAIQWVSGWRLNADSVLWGGHKVFMVKPEEPFQPVKEATQL [Q197I] | 0.145 |  | 0.0954 | 0.0849 | 0.108 | 0.0358 | 0.0805 | 0.0727 |  | 
MGESLFKGPRDYNPISSSICHLTNESDGHTTSLYGIGFGPFIITNKHLFRRNNGTLVVQSLHGVFKVKDTTTLQQHLVDGRDMIIIRMPKDFPPFPQKLKFREPQREERICLVTTNFQTKSMSSMVSDTSCTFPSGDGIFWKHWIQTKDGQCGSPLVSTRDGFIVGIHSASNFTNTNNYFTSVPKNFMELLTNQEARQWVSGWRLNADSVLWGGHKVFMVKPEEPFQPVKEATQL [Q197R] | 0.1 |  |  |  | 0.086 |  | 0.0663 |  | 0.0678 | 0.0965
MGESLFKGPRDYNPISSSICHLTNESDGHTTSLYGIGFGPFIITNKHLFRRNNGTLVVQSLHGVFKVKDTTTLQQHLVDGRDMIIIRMPKDFPPFPQKLKFREPQREERICLVTTNFQTKSMSSMVSDTSCTFPSGDGIFWKHWIQTKDGQCGSPLVSTRDGFIVGIHSASNFTNTNNYFTSVPKNFMELLTNQEAQGWVSGWRLNADSVLWGGHKVFMVKPEEPFQPVKEATQL [Q198G] | 0.102 |  | 0.0744 |  | 0.0938 | 0.0186 |  |  | 0.0709 | 0.103
MGESLFKGPRDYNPISSSICHLTNESDGHTTSLYGIGFGPFIITNKHLFRRNNGTLVVQSLHGVFKVKDTTTLQQHLVDGRDMIIIRMPKDFPPFPQKLKFREPQREERICLVTTNFQTKSMSSMVSDTSCTFPSGDGIFWKHWIQTKDGQCGSPLVSTRDGFIVGIHSASNFTNTNNYFTSVPKNFMELLTNQEAQQWVCGWRLNADSVLWGGHKVFMVKPEEPFQPVKEATQL [S201C] | 0.12 |  |  | 0.0864 | 0.0987 | 0.0594 | 0.0678 | 0.0598 | 0.0512 | 0.0951
MGESLFKGPRDYNPISSSICHLTNESDGHTTSLYGIGFGPFIITNKHLFRRNNGTLVVQSLHGVFKVKDTTTLQQHLVDGRDMIIIRMPKDFPPFPQKLKFREPQREERICLVTTNFQTKSMSSMVSDTSCTFPSGDGIFWKHWIQTKDGQCGSPLVSTRDGFIVGIHSASNFTNTNNYFTSVPKNFMELLTNQEAQQWVHGWRLNADSVLWGGHKVFMVKPEEPFQPVKEATQL [S201H] | 0.0814 |  |  | 0.0909 | 0.091 | 0.0645 | 0.0399 | 0.0611 |  | 0.0559
MGESLFKGPRDYNPISSSICHLTNESDGHTTSLYGIGFGPFIITNKHLFRRNNGTLVVQSLHGVFKVKDTTTLQQHLVDGRDMIIIRMPKDFPPFPQKLKFREPQREERICLVTTNFQTKSMSSMVSDTSCTFPSGDGIFWKHWIQTKDGQCGSPLVSTRDGFIVGIHSASNFTNTNNYFTSVPKNFMELLTNQEAQQWVSGSRLNADSVLWGGHKVFMVKPEEPFQPVKEATQL [W203S] | 0.0655 |  |  | 0.0681 | 0.064 |  | 0.0526 | 0.0529 | 0.0787 | 
MGESLFKGPRDYNPISSSICHLTNESDGHTTSLYGIGFGPFIITNKHLFRRNNGTLVVQSLHGVFKVKDTTTLQQHLVDGRDMIIIRMPKDFPPFPQKLKFREPQREERICLVTTNFQTKSMSSMVSDTSCTFPSGDGIFWKHWIQTKDGQCGSPLVSTRDGFIVGIHSASNFTNTNNYFTSVPKNFMELLTNQEAQQWVSGWRLNADAVLWGGHKVFMVKPEEPFQPVKEATQL [S209A] | 0.144 |  |  |  | 0.105 | 0.0821 |  | 0.0774 | 0.0653 | 0.11
MGESLFKGPRDYNPISSSICHLTNESDGHTTSLYGIGFGPFIITNKHLFRRNNGTLVVQSLHGVFKVKDTTTLQQHLVDGRDMIIIRMPKDFPPFPQKLKFREPQREERICLVTTNFQTKSMSSMVSDTSCTFPSGDGIFWKHWIQTKDGQCGSPLVSTRDGFIVGIHSASNFTNTNNYFTSVPKNFMELLTNQEAQQWVSGWRLNADEVLWGGHKVFMVKPEEPFQPVKEATQL [S209E] | 0.123 |  | 0.069 | 0.101 | 0.109 |  |  |  |  | 0.109
MGESLFKGPRDYNPISSSICHLTNESDGHTTSLYGIGFGPFIITNKHLFRRNNGTLVVQSLHGVFKVKDTTTLQQHLVDGRDMIIIRMPKDFPPFPQKLKFREPQREERICLVTTNFQTKSMSSMVSDTSCTFPSGDGIFWKHWIQTKDGQCGSPLVSTRDGFIVGIHSASNFTNTNNYFTSVPKNFMELLTNQEAQQWVSGWRLNADNVLWGGHKVFMVKPEEPFQPVKEATQL [S209N] | 0.063 |  | 0.0771 |  | 0.0975 |  |  | 0.0751 |  | 0.0923

Same assay, conditions: temperature: 34 °C; time window: 0-4 h after rhamnose induction

Variant | area with substrate ENLYFQI | area with substrate ENLYFQV | area with substrate ENLYFQK | area with substrate ENLYFQP | area with substrate ENLYFQQ | area with substrate ENLYFQY | area with substrate ENLYFQH | area with substrate ENLYFQL | area with substrate ENLYFQN
MGESLFKGPRDYNPISSSICHLTNESDGHTTSLYGIGFGPFIITNKHLFRRNNGTLVVQSLHGVFKVKDTTTLQQHLVDGRDMIIIRMPKDFPPFPQKLKFREPQREERICLVTTNFQTKSMSSMVSDTSCTFPSGDGIFWKHWIQTKDGQCGSPLVSTRDGFIVGIHSASNFTNTNNYFTSVPKNFMELLTNQEARQWVSGWRLNADSVLWGGHKVFMVKPEEPFQPVKEATQL [Q197R] | 0.0563 | 0.056 |  |  |  |  |  |  | 
MGESLFKGPRDYNPISSSICHLTNESDGHTTSLYGIGFGPFIITNKHLFRRNNGTLVVQSLHGVFKVKDTTTLQQHLVDGRDMIIIRMPKDFPPFPQKLKFREPQREERICLVTTNFQTKSMSSMVSDTSCTFPSGDGIFWKHWIQTKDGQCGSPLVSTRDGFIVGIHSASNFTNTNNYFTSVPKNFMELLTNQEAQGWVSGWRLNADSVLWGGHKVFMVKPEEPFQPVKEATQL [Q198G] |  | 0.058 | 0.0543 | 0.0779 | 0.0603 | 0.0789 |  |  | 
MGESLFKGPRDYNPISSSICHLTNESDGHTTSLYGIGFGPFIITNKHLFRRNNGTLVVQSLHGVFKVKDTTTLQQHLVDGRDMIIIRMPKDFPPFPQKLKFREPQREERICLVTTNFQTKSMSSMVSDTSCTFPSGDGIFWKHWIQTKDGQCGSPLVSTRDGFIVGIHSASNFTNTNNYFTSVPKNFMELLTNQEAQQWVCGWRLNADSVLWGGHKVFMVKPEEPFQPVKEATQL [S201C] | 0.0556 |  |  | 0.0719 |  | 0.0882 | 0.0748 | 0.0579 | 0.074
MGESLFKGPRDYNPISSSICHLTNESDGHTTSLYGIGFGPFIITNKHLFRRNNGTLVVQSLHGVFKVKDTTTLQQHLVDGRDMIIIRMPKDFPPFPQKLKFREPQREERICLVTTNFQTKSMSSMVSDTSCTFPSGDGIFWKHWIQTKDGQCGSPLVSTRDGFIVGIHSASNFTNTNNYFTSVPKNFMELLTNQEAQQWVHGWRLNADSVLWGGHKVFMVKPEEPFQPVKEATQL [S201H] | 0.0589 | 0.066 | 0.077 |  |  |  |  |  | 
MGESLFKGPRDYNPISSSICHLTNESDGHTTSLYGIGFGPFIITNKHLFRRNNGTLVVQSLHGVFKVKDTTTLQQHLVDGRDMIIIRMPKDFPPFPQKLKFREPQREERICLVTTNFQTKSMSSMVSDTSCTFPSGDGIFWKHWIQTKDGQCGSPLVSTRDGFIVGIHSASNFTNTNNYFTSVPKNFMELLTNQEAQQWVSGSRLNADSVLWGGHKVFMVKPEEPFQPVKEATQL [W203S] |  |  | 0.0543 |  |  | 0.0559 |  | 0.0941 | 
MGESLFKGPRDYNPISSSICHLTNESDGHTTSLYGIGFGPFIITNKHLFRRNNGTLVVQSLHGVFKVKDTTTLQQHLVDGRDMIIIRMPKDFPPFPQKLKFREPQREERICLVTTNFQTKSMSSMVSDTSCTFPSGDGIFWKHWIQTKDGQCGSPLVSTRDGFIVGIHSASNFTNTNNYFTSVPKNFMELLTNQEAQQWVSGWRLNADAVLWGGHKVFMVKPEEPFQPVKEATQL [S209A] | 0.0554 |  |  |  |  |  |  |  | 
MGESLFKGPRDYNPISSSICHLTNESDGHTTSLYGIGFGPFIITNKHLFRRNNGTLVVQSLHGVFKVKDTTTLQQHLVDGRDMIIIRMPKDFPPFPQKLKFREPQREERICLVTTNFQTKSMSSMVSDTSCTFPSGDGIFWKHWIQTKDGQCGSPLVSTRDGFIVGIHSASNFTNTNNYFTSVPKNFMELLTNQEAQQWVSGWRLNADEVLWGGHKVFMVKPEEPFQPVKEATQL [S209E] | 0.0489 |  |  | 0.061 |  | 0.0586 | 0.0975 |  | 
MGESLFKGPRDYNPISSSICHLTNESDGHTTSLYGIGFGPFIITNKHLFRRNNGTLVVQSLHGVFKVKDTTTLQQHLVDGRDMIIIRMPKDFPPFPQKLKFREPQREERICLVTTNFQTKSMSSMVSDTSCTFPSGDGIFWKHWIQTKDGQCGSPLVSTRDGFIVGIHSASNFTNTNNYFTSVPKNFMELLTNQEAQQWVSGWRLNADNVLWGGHKVFMVKPEEPFQPVKEATQL [S209N] | 0.0571 |  | 0.0728 | 0.0571 |  | 0.0429 |  | 0.0582 | 0.0737
